These are yes or no findings as the source states them, for the method shown. For some of these results: Binding seen in cells or lysates may run through a third protein. Some entries that bind do so weakly or less than the wild type. Where a sequence is shown, tags or fusion partners need not be part of it.

The chains behind the UniProt entries cited, without tags or fusion partners.
UniProt Q9SJM0: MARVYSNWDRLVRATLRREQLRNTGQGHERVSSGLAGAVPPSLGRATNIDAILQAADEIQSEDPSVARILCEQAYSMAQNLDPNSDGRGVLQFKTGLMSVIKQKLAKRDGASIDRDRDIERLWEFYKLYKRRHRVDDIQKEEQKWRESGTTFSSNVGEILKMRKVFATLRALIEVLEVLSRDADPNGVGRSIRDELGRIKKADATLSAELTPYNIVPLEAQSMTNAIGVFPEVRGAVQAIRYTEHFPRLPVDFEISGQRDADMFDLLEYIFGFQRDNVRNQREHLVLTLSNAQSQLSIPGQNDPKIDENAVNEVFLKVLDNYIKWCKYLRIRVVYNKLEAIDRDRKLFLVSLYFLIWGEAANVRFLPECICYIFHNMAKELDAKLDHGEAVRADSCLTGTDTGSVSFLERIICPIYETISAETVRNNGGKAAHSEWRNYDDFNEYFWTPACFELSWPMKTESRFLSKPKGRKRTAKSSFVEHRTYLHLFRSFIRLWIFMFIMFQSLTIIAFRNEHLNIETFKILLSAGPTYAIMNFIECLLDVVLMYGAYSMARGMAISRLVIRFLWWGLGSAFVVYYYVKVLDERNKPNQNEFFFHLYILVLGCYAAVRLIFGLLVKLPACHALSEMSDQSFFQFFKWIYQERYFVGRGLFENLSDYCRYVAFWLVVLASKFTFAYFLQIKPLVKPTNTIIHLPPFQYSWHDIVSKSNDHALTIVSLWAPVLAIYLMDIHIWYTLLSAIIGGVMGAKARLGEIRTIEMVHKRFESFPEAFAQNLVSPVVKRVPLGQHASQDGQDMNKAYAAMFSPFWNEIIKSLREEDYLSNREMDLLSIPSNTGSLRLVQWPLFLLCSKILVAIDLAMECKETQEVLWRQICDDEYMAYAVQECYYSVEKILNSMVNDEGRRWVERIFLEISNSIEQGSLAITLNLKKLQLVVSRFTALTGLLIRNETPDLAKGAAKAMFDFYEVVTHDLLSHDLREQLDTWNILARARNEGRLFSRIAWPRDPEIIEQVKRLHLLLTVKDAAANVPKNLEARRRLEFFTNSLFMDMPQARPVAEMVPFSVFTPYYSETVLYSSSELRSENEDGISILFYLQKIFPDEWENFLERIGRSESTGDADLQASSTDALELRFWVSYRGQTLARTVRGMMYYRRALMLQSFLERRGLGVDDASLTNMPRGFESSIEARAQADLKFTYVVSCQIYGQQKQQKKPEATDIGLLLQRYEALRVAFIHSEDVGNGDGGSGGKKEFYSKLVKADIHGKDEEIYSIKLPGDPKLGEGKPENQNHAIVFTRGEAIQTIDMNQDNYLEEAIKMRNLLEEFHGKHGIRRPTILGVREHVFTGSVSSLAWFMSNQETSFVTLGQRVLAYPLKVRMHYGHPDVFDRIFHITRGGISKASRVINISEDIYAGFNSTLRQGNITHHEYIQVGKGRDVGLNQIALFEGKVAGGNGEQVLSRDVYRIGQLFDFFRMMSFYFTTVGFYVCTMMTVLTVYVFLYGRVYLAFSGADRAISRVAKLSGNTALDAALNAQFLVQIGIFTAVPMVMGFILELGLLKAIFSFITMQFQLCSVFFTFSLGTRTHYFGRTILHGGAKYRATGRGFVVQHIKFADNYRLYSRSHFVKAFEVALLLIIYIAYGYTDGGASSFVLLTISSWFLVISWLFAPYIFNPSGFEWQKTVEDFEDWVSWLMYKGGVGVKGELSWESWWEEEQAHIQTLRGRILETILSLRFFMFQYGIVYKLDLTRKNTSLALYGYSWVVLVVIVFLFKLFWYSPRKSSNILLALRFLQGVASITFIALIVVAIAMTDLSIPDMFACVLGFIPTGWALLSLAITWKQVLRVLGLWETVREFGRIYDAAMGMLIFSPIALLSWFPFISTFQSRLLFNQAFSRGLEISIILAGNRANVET
UniProt P49040: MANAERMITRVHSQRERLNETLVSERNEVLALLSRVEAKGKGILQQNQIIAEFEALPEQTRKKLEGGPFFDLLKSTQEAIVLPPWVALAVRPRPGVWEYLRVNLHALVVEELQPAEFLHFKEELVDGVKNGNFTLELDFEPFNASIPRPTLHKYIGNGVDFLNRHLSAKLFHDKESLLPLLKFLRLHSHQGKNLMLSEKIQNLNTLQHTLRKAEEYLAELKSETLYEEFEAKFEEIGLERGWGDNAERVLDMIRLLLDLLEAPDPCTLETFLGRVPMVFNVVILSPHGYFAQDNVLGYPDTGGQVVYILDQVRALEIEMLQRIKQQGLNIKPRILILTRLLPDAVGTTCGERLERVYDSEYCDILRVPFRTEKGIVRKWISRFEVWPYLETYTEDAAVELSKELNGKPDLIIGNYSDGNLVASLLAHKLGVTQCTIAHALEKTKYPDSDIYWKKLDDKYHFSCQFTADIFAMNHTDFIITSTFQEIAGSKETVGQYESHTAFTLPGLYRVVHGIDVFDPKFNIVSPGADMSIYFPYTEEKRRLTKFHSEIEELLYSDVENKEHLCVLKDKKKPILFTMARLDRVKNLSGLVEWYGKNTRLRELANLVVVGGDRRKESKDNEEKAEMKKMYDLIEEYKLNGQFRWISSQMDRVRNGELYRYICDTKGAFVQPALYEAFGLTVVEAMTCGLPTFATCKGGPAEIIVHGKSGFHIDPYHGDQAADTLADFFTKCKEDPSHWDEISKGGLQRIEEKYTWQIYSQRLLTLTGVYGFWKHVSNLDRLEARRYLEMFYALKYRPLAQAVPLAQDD
UniProt Q9SFU6: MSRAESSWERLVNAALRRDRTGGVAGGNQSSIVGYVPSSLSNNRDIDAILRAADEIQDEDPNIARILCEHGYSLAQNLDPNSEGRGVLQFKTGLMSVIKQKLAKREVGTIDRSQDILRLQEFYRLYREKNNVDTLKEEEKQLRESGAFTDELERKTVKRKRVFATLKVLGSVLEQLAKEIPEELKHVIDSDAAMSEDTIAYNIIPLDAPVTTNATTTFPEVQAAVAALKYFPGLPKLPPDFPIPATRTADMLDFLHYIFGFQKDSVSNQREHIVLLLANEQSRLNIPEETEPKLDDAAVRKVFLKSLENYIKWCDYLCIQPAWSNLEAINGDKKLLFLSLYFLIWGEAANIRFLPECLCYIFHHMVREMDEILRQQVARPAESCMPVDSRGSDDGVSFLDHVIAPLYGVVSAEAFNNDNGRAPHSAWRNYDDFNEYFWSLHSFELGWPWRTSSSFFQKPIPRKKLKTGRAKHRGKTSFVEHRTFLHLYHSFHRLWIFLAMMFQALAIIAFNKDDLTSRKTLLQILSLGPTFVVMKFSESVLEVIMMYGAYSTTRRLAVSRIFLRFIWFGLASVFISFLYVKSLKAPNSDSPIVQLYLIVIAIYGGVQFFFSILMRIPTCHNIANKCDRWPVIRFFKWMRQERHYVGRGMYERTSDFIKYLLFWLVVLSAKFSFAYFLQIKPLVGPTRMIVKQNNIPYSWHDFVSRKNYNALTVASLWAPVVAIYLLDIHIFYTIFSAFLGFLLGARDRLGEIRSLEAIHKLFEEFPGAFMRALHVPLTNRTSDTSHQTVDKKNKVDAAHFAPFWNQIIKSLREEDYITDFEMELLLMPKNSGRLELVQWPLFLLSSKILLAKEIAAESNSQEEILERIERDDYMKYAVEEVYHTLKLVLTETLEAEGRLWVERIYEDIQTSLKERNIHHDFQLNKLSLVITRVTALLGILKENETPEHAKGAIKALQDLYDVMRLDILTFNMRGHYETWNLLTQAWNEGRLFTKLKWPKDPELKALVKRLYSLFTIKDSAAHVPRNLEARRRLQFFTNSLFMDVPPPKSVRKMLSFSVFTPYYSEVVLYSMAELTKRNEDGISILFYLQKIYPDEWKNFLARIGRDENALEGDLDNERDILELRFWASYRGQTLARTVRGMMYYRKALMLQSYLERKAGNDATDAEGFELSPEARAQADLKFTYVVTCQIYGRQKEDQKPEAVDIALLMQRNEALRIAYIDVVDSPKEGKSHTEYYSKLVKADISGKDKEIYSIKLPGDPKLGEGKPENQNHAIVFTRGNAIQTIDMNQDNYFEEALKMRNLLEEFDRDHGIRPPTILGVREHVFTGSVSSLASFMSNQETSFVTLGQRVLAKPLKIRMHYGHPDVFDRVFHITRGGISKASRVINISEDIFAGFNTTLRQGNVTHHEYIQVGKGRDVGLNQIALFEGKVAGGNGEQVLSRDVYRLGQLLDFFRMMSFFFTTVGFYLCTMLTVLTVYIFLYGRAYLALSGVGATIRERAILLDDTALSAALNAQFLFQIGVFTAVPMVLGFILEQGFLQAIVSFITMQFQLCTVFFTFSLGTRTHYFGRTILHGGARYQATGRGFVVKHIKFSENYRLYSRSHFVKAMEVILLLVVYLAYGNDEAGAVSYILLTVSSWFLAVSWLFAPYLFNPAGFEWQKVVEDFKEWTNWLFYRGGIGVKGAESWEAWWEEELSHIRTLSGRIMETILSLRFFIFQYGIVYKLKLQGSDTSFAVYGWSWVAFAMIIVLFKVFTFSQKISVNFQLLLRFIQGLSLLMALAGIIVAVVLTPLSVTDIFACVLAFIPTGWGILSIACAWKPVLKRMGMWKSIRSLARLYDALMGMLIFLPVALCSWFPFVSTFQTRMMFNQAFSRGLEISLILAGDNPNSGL

B1: PLASMODESMATA-LOCALIZED PROTEIN 5 (PDLP5) fused to CFP (protein, UniProt Q8GUJ2 26-299)
chain: SPTDNYIYAVCSPAKFSPSSGYETNLNSLLSSFVTSTAQTRYANFTVPTGKPEPTVTVYGIYQCRGDLDPTACSTCVSSAVAQVGALCSNSYSGFLQMENCLIRYDNKSFLGVQDKTLILNKCGQPMEFNDQDALTKASDVIGSLGTGDGSYRTGGNGNVQGVAQCSGDLSTSQCQDCLSDAIGRLKSDCGMAQGGYVYLSKCYARFSVGGSHARQTPGPNFGHEGEKGNKDDNGVGKTLAIIIGIVTLIILLVVFLAFVGKCCRKLQDEKWCK
B2: AtBG_PPAP (a β-1,3-glucanase) fused to CFP (enzyme, UniProt Q9FHX5 27-401)
chain: IGINYGQVANNLPPPKNVIPLLKSVGATKVKLYDADPQALRAFAGSGFELTVALGNEYLAQMSDPIKAQGWVKENVQAYLPNTKIVAIVVGNEVLTSNQSALTAALFPAMQSIHGALVDCGLNKQIFVTTAHSLAILDVSYPPSATSFRRDLLGSLTPILDFHVKTGSPILINAYPFFAYEENPKHVSLDFVLFQPNQGFTDPGSNFHYDNMLFAQVDAVYHALDAVGISYKKVPIVVSETGWPSNGDPQEVGATCDNARKYNGNLIKMMMSKKMRTPIRPECDLTIFVFALFNENMKPGPTSERNYGLFNPDGTPVYSLGIKTSSTHSSGSGSSNSTGGSSSGGGGNTGGSSSGGGIYQPVTGNPSPDYMSISS
B3: PLASMODESMATA-LOCALIZED PROTEIN 5 (PDLP5), prey of the MYTH (protein, UniProt Q8GUJ2 26-299)
chain: SPTDNYIYAVCSPAKFSPSSGYETNLNSLLSSFVTSTAQTRYANFTVPTGKPEPTVTVYGIYQCRGDLDPTACSTCVSSAVAQVGALCSNSYSGFLQMENCLIRYDNKSFLGVQDKTLILNKCGQPMEFNDQDALTKASDVIGSLGTGDGSYRTGGNGNVQGVAQCSGDLSTSQCQDCLSDAIGRLKSDCGMAQGGYVYLSKCYARFSVGGSHARQTPGPNFGHEGEKGNKDDNGVGKTLAIIIGIVTLIILLVVFLAFVGKCCRKLQDEKWCK
B4: AtBG_PPAP (a β-1,3-glucanase), prey of the MYTH (enzyme, UniProt Q9FHX5 27-401)
chain: IGINYGQVANNLPPPKNVIPLLKSVGATKVKLYDADPQALRAFAGSGFELTVALGNEYLAQMSDPIKAQGWVKENVQAYLPNTKIVAIVVGNEVLTSNQSALTAALFPAMQSIHGALVDCGLNKQIFVTTAHSLAILDVSYPPSATSFRRDLLGSLTPILDFHVKTGSPILINAYPFFAYEENPKHVSLDFVLFQPNQGFTDPGSNFHYDNMLFAQVDAVYHALDAVGISYKKVPIVVSETGWPSNGDPQEVGATCDNARKYNGNLIKMMMSKKMRTPIRPECDLTIFVFALFNENMKPGPTSERNYGLFNPDGTPVYSLGIKTSSTHSSGSGSSNSTGGSSSGGGGNTGGSSSGGGIYQPVTGNPSPDYMSISS
B5: stomatal cytokinesis-defective 1 (SCD1), prey of the MYTH (protein, UniProt Q8RXA7 1-1187)
chain: MGRIFEYFVVCGLGPEMRTVDGDLGFHGMQTFYLPALLDQFPPTDQSPYPAPPPQLPTCVLPAGVEFHSSGFVSSDPASFPRSYPIVLTEGDGSKIFVSCIAFRDRVCEDIIEAYRLPPNTYADKCICLVSHAPNFRVLRNSLEEIFVLCFSSEGSCKPLWDIIAYMVSNVPLPTPGKDRVLFAVENCLLSVEAPPEDSLPQADISLQPLVQCLDVDNLIKLFTSVLVERRILIRSNKYSLLTLVSESICHLIYPFRWLQVYIPLLFFSGVDYIDAPTPYMMGLHSDVDTSNLAMDGVVVVDLDINQITTSEEIPQIPEPEFSTLRNDILKLLHPNVVAIDQLKGFGNSVEQCPKSLSKPWGEDHDLQLRVIFLKCFASILGGYRNFIENKVFSTDAFLKRRSRSTNQPPEPMLVQFLGSFAFLDYLERRLSSDEKSTNLLEKLQDAVGRGQDAMSILPKSSMEPEIITIAEPEVEESATRYTYDRFPASVRSEEQEEKRKQILAAASGALESNGRHPPSSPPGKNTKEDNFSSMERAAERERMVLDIQVKLQGLWLRLLKLGSDEDPLSSFEYGTILALIESDAEGIGGSGFIECIREHLYSGWHGQLSEEQFIAVKELLKMAVGRAASRSDLSTVRDALEVSAEMFKKDANNVSDYVQRHLISIPIWEELRFWEGYFEYLMEQPANESVNYATLVTARLIIVASHMAGLGLPDTEAWNMIETIAEKQKLGYKLLIKLRGFLSHVQQLRVGYWGASSFKQQAISAGLPSPRPKDVSVSDETQQPSEASGRSWVQSMFSRDTASRANSFSRVRKWVSDNASSDITAAAQKKIQTNVRVLKGHGGAVTALHSVTRREVCDLVGDREDAGFFISGSTDCLVKIWDPSLRGSELRATLKGHTGTVRAISSDRGKIVSGSDDLSVIVWDKQTTQLLEELKGHDSQVSCVKMLSGERVLTAAHDGTVKMWDVRTDMCVATVGRCSSAILSLEYDDSTGILAAAGRDTVANIWDIRSGKQMHKLKGHTKWIRSIRMVEDTLITGSDDWTARVWSVSRGSCDAVLACHAGPVQSVEYSPFDKGIITGSADGLLRFWENDEGGIKCVKNITLHSSSILSINAGENWLGIGAADNSMSLFHRPSNAGTKVSGWQLYRVPQRTAAVVRCVASDLERKRICSGGRNGVLRLWDATINI
B6: GmIFS2-YN, an ER membrane-localized protein from soybean (protein, UniProt Q9SWR5 1-521)
chain: MLLELALGLLVLALFLHLRPTPTAKSKALRHLPNPPSPKPRLPFIGHLHLLKDKLLHYALIDLSKKHGPLFSLYFGSMPTVVASTPELFKLFLQTHEATSFNTRFQTSAIRRLTYDSSVAMVPFGPYWKFVRKLIMNDLLNATTVNKLRPLRTQQIRKFLRVMAQGAEAQKPLDLTEELLKWTNSTISMMMLGEAEEIRDIAREVLKIFGEYSLTDFIWPLKHLKVGKYEKRIDDILNKFDPVVERVIKKRREIVRRRKNGEVVEGEVSGVFLDTLLEFAEDETMEIKITKDHIKGLVVDFFSAGTDSTAVATEWALAELINNPKVLEKAREEVYSVVGKDRLVDEVDTQNLPYIRAIVKETFRMHPPLPVVKRKCTEECEINGYVIPEGALILFNVWQVGRDPKYWDRPSEFRPERFLETGAEGEAGPLDLRGQHFQLLPFGSGRRMCPGVNLATSGMATLLASLIQCFDLQVLGPQGQILKGGDAKVSMEERAGLTVPRAHSLVCVPLARIGVASKLLS
B7: PLASMODESMATA-LOCALIZED PROTEIN 5 (PDLP5) fused to YN (protein, UniProt Q8GUJ2 26-299)
chain: SPTDNYIYAVCSPAKFSPSSGYETNLNSLLSSFVTSTAQTRYANFTVPTGKPEPTVTVYGIYQCRGDLDPTACSTCVSSAVAQVGALCSNSYSGFLQMENCLIRYDNKSFLGVQDKTLILNKCGQPMEFNDQDALTKASDVIGSLGTGDGSYRTGGNGNVQGVAQCSGDLSTSQCQDCLSDAIGRLKSDCGMAQGGYVYLSKCYARFSVGGSHARQTPGPNFGHEGEKGNKDDNGVGKTLAIIIGIVTLIILLVVFLAFVGKCCRKLQDEKWCK
B8: AtBG_PPAP (a β-1,3-glucanase) fused to YN (enzyme, UniProt Q9FHX5 27-401)
chain: IGINYGQVANNLPPPKNVIPLLKSVGATKVKLYDADPQALRAFAGSGFELTVALGNEYLAQMSDPIKAQGWVKENVQAYLPNTKIVAIVVGNEVLTSNQSALTAALFPAMQSIHGALVDCGLNKQIFVTTAHSLAILDVSYPPSATSFRRDLLGSLTPILDFHVKTGSPILINAYPFFAYEENPKHVSLDFVLFQPNQGFTDPGSNFHYDNMLFAQVDAVYHALDAVGISYKKVPIVVSETGWPSNGDPQEVGATCDNARKYNGNLIKMMMSKKMRTPIRPECDLTIFVFALFNENMKPGPTSERNYGLFNPDGTPVYSLGIKTSSTHSSGSGSSNSTGGSSSGGGGNTGGSSSGGGIYQPVTGNPSPDYMSISS
B9: stomatal cytokinesis-defective 1 (SCD1) fused to YN (protein, UniProt Q8RXA7 1-1187)
chain: MGRIFEYFVVCGLGPEMRTVDGDLGFHGMQTFYLPALLDQFPPTDQSPYPAPPPQLPTCVLPAGVEFHSSGFVSSDPASFPRSYPIVLTEGDGSKIFVSCIAFRDRVCEDIIEAYRLPPNTYADKCICLVSHAPNFRVLRNSLEEIFVLCFSSEGSCKPLWDIIAYMVSNVPLPTPGKDRVLFAVENCLLSVEAPPEDSLPQADISLQPLVQCLDVDNLIKLFTSVLVERRILIRSNKYSLLTLVSESICHLIYPFRWLQVYIPLLFFSGVDYIDAPTPYMMGLHSDVDTSNLAMDGVVVVDLDINQITTSEEIPQIPEPEFSTLRNDILKLLHPNVVAIDQLKGFGNSVEQCPKSLSKPWGEDHDLQLRVIFLKCFASILGGYRNFIENKVFSTDAFLKRRSRSTNQPPEPMLVQFLGSFAFLDYLERRLSSDEKSTNLLEKLQDAVGRGQDAMSILPKSSMEPEIITIAEPEVEESATRYTYDRFPASVRSEEQEEKRKQILAAASGALESNGRHPPSSPPGKNTKEDNFSSMERAAERERMVLDIQVKLQGLWLRLLKLGSDEDPLSSFEYGTILALIESDAEGIGGSGFIECIREHLYSGWHGQLSEEQFIAVKELLKMAVGRAASRSDLSTVRDALEVSAEMFKKDANNVSDYVQRHLISIPIWEELRFWEGYFEYLMEQPANESVNYATLVTARLIIVASHMAGLGLPDTEAWNMIETIAEKQKLGYKLLIKLRGFLSHVQQLRVGYWGASSFKQQAISAGLPSPRPKDVSVSDETQQPSEASGRSWVQSMFSRDTASRANSFSRVRKWVSDNASSDITAAAQKKIQTNVRVLKGHGGAVTALHSVTRREVCDLVGDREDAGFFISGSTDCLVKIWDPSLRGSELRATLKGHTGTVRAISSDRGKIVSGSDDLSVIVWDKQTTQLLEELKGHDSQVSCVKMLSGERVLTAAHDGTVKMWDVRTDMCVATVGRCSSAILSLEYDDSTGILAAAGRDTVANIWDIRSGKQMHKLKGHTKWIRSIRMVEDTLITGSDDWTARVWSVSRGSCDAVLACHAGPVQSVEYSPFDKGIITGSADGLLRFWENDEGGIKCVKNITLHSSSILSINAGENWLGIGAADNSMSLFHRPSNAGTKVSGWQLYRVPQRTAAVVRCVASDLERKRICSGGRNGVLRLWDATINI

One experiment concerns the target GLUCAN SYNTHASE-LIKE 8 (GSL8) fused to YFP (Arabidopsis thaliana) (UniProt Q9SJM0). Put plainly: FRET or BRET; FRET by acceptor photobleaching in infiltrated N. bentamiana leaves, 3 dpi; GSL8-YFP (acceptor) with candidate interactor fused to CFP (donor). (In general: In BRET a luciferase serves as donor, and the signal depends on an acceptor being close.)
With “SUCROSE SYNTHASE 1 (SUS1) fused to CFP (from UniProt P49040 1-808) (enzyme)”, the binding result is given as “binds”. Still for that read-out and setting: the same measure for B1: “binds”; for B2: “binds”.

In a further experiment the target is GLUCAN SYNTHASE-LIKE 8 (GSL8), bait of the membrane yeast two hybrid system (MYTH) (Arabidopsis thaliana) (UniProt Q9SJM0). Put plainly: two-hybrid; membrane yeast two hybrid system (MYTH); bait GSL8 in pAMBV, preys in pPR3-C; colony growth on SD-Leu-Trp (TSM) against SD-Leu-Trp-Ade-His (ISM).
Take “SUCROSE SYNTHASE 1 (SUS1), prey of the MYTH (from UniProt P49040 1-808) (enzyme)”: the binding entry was “binds weakly”. In the case of “GLUCAN SYNTHASE-LIKE 10 (GSL10), prey of the MYTH (from UniProt Q9SFU6 1-1890)”, the binding result was “binds”. On the same count and under the same terms, the same measure for B3: “binds”. Still for that read-out and setting: the same measure for B4: “binds”. The same measure, in the same setting: the same measure for B5: “binds weakly”.

A further experiment has as its target GLUCAN SYNTHASE-LIKE 8 (GSL8) fused to YC (Arabidopsis thaliana) (UniProt Q9SJM0). Put plainly: split reporter; BiFC in infiltrated four-week-old N. bentamiana leaves; GSL8-YC with candidate interactors fused to YN; confocal imaging 3 days post infiltration.
As for “SUCROSE SYNTHASE 1 (SUS1) fused to YN (from UniProt P49040 1-808) (enzyme)”, the binding entry is “binds”.

As for B6, the binding result was “no binding”. The same measure, in the same setting: the same measure for B7: “binds”; for B8: “binds”. Still for that read-out and setting: the same measure for B9: “binds”.
